Test results from PubChem BioAssay AID445 (National Center for Advancing Translational Sciences (NCATS), 2006).
Out of some 110,000 compounds screened, about 40 (0.04%) were called active. This list was built around the results that the source calls inconclusive (neither active nor inactive); the mix of calls is not that of the screen. Calls follow the shape of the dose curve; as a rule, active = well fitted curve in the direction sought with a large enough effect in the signal ratio (not every such curve was filed as active); inconclusive = small, poorly fitted or top-dose-only effect, or a change in a side signal; inactive = flat fitted curve, though single readings scatter; the % refers to the signal ratio. A potency beside an inconclusive call is a rough fit, not a confirmed value.

Experiment: IkB Signaling;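 as to IkBa stabilization activation: 0% = basal untreated cells and 100% = reference inhibitor full response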
Conditions: ABC-DLBCL IkBa-CBG/CBR dual luciferase ratio (green luciferase fused to IkBa over red control in OCI-Ly3 lymphoma cells), 4 h; IkBa stabilization activation: at 57.1 µM (top of the series), scaled: untreated 0%, proteasome inhibitor 100% unless noted
Outline: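 Curves were fitted separately to fusion (green), unfused (red) and ratio luminescence, then classed by r2, magnitude and activity. Cells: OCI-Ly3, 4 h compound plus doxycycline at 37C; 10 uM MG-132 defined full response.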
Potency is read from the fitted curve at half-maximal effect.

Compound | IkBa stabilization activation | Potency
COc1ccc(C)cc1NC(=O)CCC(=O)Nc1ccc2nc(N3CCN(C)CC3)cc(C)c2c1 | inconclusive: 1.34% [signal inhibitor] | 
COC(=O)c1sccc1NC(=O)c1ccc(Br)o1 | inactive | 
CCCS(=O)(=O)c1nc(S(=O)(=O)c2ccc(C)cc2)c(N(C)Cc2ccccc2)s1 | inactive | 
Cc1ccccc1C(=O)Nc1nnc2n1CCS2 | inactive | 
CCc1ccccc1-n1c(C)nc2cc(C(=O)NCCc3ccc(Cl)cc3)ccc21 | inconclusive: -0.191% [signal inhibitor] | 
Cc1ccc(CNC(=O)C2CCN(S(=O)(=O)c3cn(C)cn3)CC2)cc1 | inactive | 
C=CCNc1nc2c(c(=O)[nH]c(=O)n2C)n1Cc1cccc(C)c1 | inactive | 
Cc1ccc(-n2ncc(C(=O)NCCN3CCCC3)c2C2CCN(C(=O)OC(C)(C)C)CC2)cc1C | inconclusive: -0.751% [signal inhibitor] | 
CC(c1ccco1)N(C(=O)C12CC3CC(CC(C3)C1)C2)c1ccccn1 (centres undefined) | inactive | 
COc1cccc(-c2cc(C(=O)Nc3c(C)nn(Cc4ccccc4C)c3C)no2)c1 | inconclusive: 9.58% [signal inhibitor] | 
CC(=O)Nc1cccc(NC(=O)c2c(-c3ccccc3Cl)noc2C)c1 | inconclusive: 7.85% [signal inhibitor] | 
COc1ccc(OC)c2sc(N3CCN(C(=O)CCS(=O)(=O)c4ccc(F)cc4)CC3)nc12 | inconclusive: 2.07% [signal inhibitor] | 
O=C(NCc1ccccn1)C1COc2ccccc2O1 (centres undefined) | inactive | 
COC(=O)c1ccc2c(c1)N(Cc1ccc(Cl)cc1)C(=O)c1ccccc1S2 | inconclusive: 1.3% [signal inhibitor] | 
COc1ccc(NC(=O)c2cc3c(=O)n(C)c4ccccc4c3n2C)cc1OC | inactive | 
CC1CCN(CCCNC(=O)c2coc3nc4ccccc4nc23)CC1 | inconclusive: 15.9% [signal inhibitor] | 
Cc1oc(-c2cccc(Cl)c2)nc1CN1CCCC(C(=O)NC(C)c2ccc3c(c2)OCCO3)C1 (centres undefined) | inconclusive: 8.91% [signal inhibitor] | 
CC1=CC(C)(C)N2C(=O)C3(SCC(=O)N3c3ccc(O)cc3)c3cc(C)cc1c32 (centres undefined) | inconclusive: 10.9% [signal inhibitor] | 
O=C(Nc1c2c(nn1-c1ccc(Cl)cc1)CS(=O)(=O)C2)c1ccc2c(c1)OCO2 | inactive | 
Cc1c(-c2ccc(F)cc2)nc(N)c(C#N)c1-c1ccco1 | inactive | 
CCOc1ccc(CCNc2ncnc3onc(-c4ccc(Cl)cc4)c23)cc1OCC | inconclusive: -0.968% [signal inhibitor] | 
COc1ccc(NC(=O)C(c2ccc(C)cc2)N(C)C(=O)/C=C\c2ccc3c(c2)OCO3)cc1 (centres undefined) | inconclusive: 2.65% [signal inhibitor] | 
CCOC(=O)c1ccc(NC(=O)CCc2c(C)nc3c(c(C)nn3-c3ccccc3)c2C)cc1 | inconclusive: 1.26% [signal inhibitor] | 

Compound | IkBa stabilization activation | Potency
COc1cccc(C2=C(C(C)=O)Sc3nncn3N2C(C)=O)c1 |  | inconclusive: 31.6 µM [rising, single point]
Cc1cccc(C(=O)Nc2sc3c(c2C(=O)N2CCCCC2)CCC(C)C3)c1 (centres undefined) |  | inconclusive: 31.6 µM [signal inhibitor, single point]
Cn1c(SCC(=O)N2c3ccccc3Sc3ccc(Cl)cc32)nnc1-c1ccco1 | inconclusive: 1.72% [signal inhibitor] | 
COc1ccccc1CNc1nc(-c2ccccc2OC)nc2ccccc12 | inactive: -1.25% [at 11.4 µM, scaled: untreated 0%, proteasome inhibitor 100%] | 
Cc1oc2ccc(O)c(CN(C)Cc3ccccc3)c2c1C(=O)Nc1ccccc1 | inconclusive: 5.45% [signal inhibitor] | 
O=C(CCc1cn(Cc2ccc(F)cc2)c2ccccc12)NCCc1ccc(Cl)cc1 | inconclusive: 2.48% [signal inhibitor] | 
CCN(c1ccccc1)c1nnc(NC(=O)Nc2ccc(Br)cc2)s1 | inconclusive: 1.13% [signal inhibitor] | 
Cn1cnc(S(=O)(=O)N2CCC(C(=O)NCc3ccccc3Cl)CC2)c1 | inactive | 
COc1cccc(NC(=O)CSc2nc3ccc(NC(=O)c4cccs4)cc3s2)c1 | inconclusive: 1.79% [signal inhibitor] | 
Cc1ccc(C(=O)CC2(O)C(=O)N(Cc3ccccc3F)c3ccccc32)cc1 (centres undefined) | inconclusive: 3.69% [signal inhibitor] | 
Oc1ccc(CNc2ccc(F)cc2)c2cccnc12 | inconclusive: 8.49% [signal inhibitor] | 
Cc1ccc(NC(=O)Nc2nnc(N3CCCC3)s2)cc1 | inconclusive: 0.935% [signal inhibitor] | 
Cc1cc(C)cc(NC(=O)CN(c2cc(C(F)(F)F)ccc2Cl)S(=O)(=O)c2ccccc2)c1 | inconclusive: 9.38% [signal inhibitor] | 
O=C(CCS(=O)(=O)c1nc(-c2cccs2)cc(C(F)(F)F)n1)Nc1ccc(OC(F)(F)F)cc1 |  | inconclusive: 5.01 µM [signal inhibitor, full curve]
Cn1c(=O)c(-c2ccc(Cl)cc2)nc2cnc(Oc3cccc(Cl)c3)nc21 | inactive: -3% [at 11.4 µM, scaled: untreated 0%, proteasome inhibitor 100%] | 
COC(=O)c1ccccc1NC(=O)C1=CC(c2ccc(C)cc2)=NS(=O)(=O)N1C | inconclusive: 0.633% [signal inhibitor] | 
COc1cccc(-c2nn(C)c3sc(C(=O)NCc4cc(OC)ccc4OC)cc23)c1 | inconclusive: -0.163% [signal inhibitor] | 
O=C(NC1CC1)c1cccc(Nc2ccc(-c3ccc4c(c3)OCCO4)nn2)c1 |  | inconclusive: 15.8 µM [signal inhibitor, partial curve]
CC(=O)c1ccc(NC(=O)CCc2c(C)nc3c(c(C)nn3-c3ccc(C)cc3)c2C)cc1 | inconclusive: 0.196% [signal inhibitor] | 
CC(=O)Nc1ccc(S(=O)(=O)N2CCN(c3cccc(C)c3C)CC2)cc1 | inconclusive: 6.87% [signal inhibitor] | 
COc1ccccc1NC(c1ccc(Cl)cc1)c1nnc(-c2cccc(F)c2)o1 (centres undefined) | inconclusive: 13.6% [signal inhibitor] | 
CC(=O)N1CCN(c2ccc(NCc3ccc(F)cc3)cc2)CC1 | inactive | 
CC(C)(C)c1ccc(Cn2c(Cc3ccccc3)nc3ccccc32)cc1 | inconclusive: -8.78% [signal inhibitor] | 

Compound | IkBa stabilization activation | Potency
CCOc1ccc(-c2nonc2NC(=O)c2oc3ccc(F)cc3c2C)cc1 | inconclusive: 2.53% [signal inhibitor] | 
Cc1cc(C)n(-c2nncn2NC(=O)c2ccc(Cl)cc2O)n1 | inconclusive: 4.79% [signal inhibitor] | 
C=CCc1cccc(C2Nc3ccccc3C(=O)N2O)c1O (centres undefined) | inactive | 
CCc1nnc(SCc2cc(C)ccc2C)c2cc3sc(C)cc3n12 | inactive | 
COc1cccc(NC(=O)CSC2=Nc3ccccc3C3=NC(CC(=O)NC4CCCCC4)C(=O)N23)c1 (centres undefined) | inconclusive: -1.41% [signal inhibitor] | 
CC(C)CSc1nc2c(c(=O)[nH]c(=O)n2C)n1CCc1ccccc1 | inactive | 
Cc1ccc(-n2c(SCc3cccc(F)c3)nc3[nH]ncc3c2=O)cc1C | inactive | 
COc1cc(OC)c(OC)cc1/C=C/c1nc2cc3ccccc3cc2c(=O)n1-c1ccc(F)cc1F |  | inconclusive: 3.16 µM [signal inhibitor, partial curve]
Cc1ccc2c(c1)-c1cc(C)nn1C(c1cc(Br)ccc1O)N2 (centres undefined) | inconclusive: 17.3% [signal inhibitor] | 
Cc1ccc(/C=N/c2sc3c(c2C#N)CCCCC3)o1 | inconclusive: 4.12% [signal inhibitor] | 
O=S(=O)(Nc1nc2n(n1)C(c1ccc(F)cc1)C=C(c1ccccc1)N2)c1ccccc1 (centres undefined) | inconclusive: 0.0635% [signal inhibitor] | 
CCOC(=O)c1nn(-c2ccccc2)c(=O)c(C#N)c1C | inactive | 
COC(=O)c1ccc2c(=O)n(CCCCCC(=O)NCc3ccc(Cl)cc3)c(=O)[nH]c2c1 | inactive | 
CCc1ccc(CNC(=O)c2ccc(NC(=O)N3CC(C)Sc4ccccc43)cc2)cc1 (centres undefined) | inconclusive: 2.33% [signal inhibitor] | 
Cc1nn2c(-c3cccc(NC(=O)c4ccccc4)c3)nnc2c2ccccc12 | inconclusive: 1.26% [signal inhibitor] | 
COc1ccc(CNC(=O)c2ccc(N3CCCC3)c(NC(=O)NCc3ccc(C)cc3)c2)cc1 | inconclusive: 1.09% [signal inhibitor] | 
O=C(Cc1ccccc1)N(Cc1cccnc1)c1nc2c(F)cc(F)cc2s1 | inconclusive: -2.23% [signal inhibitor] | 
Cc1cccc(N2CCN(C(=O)CCc3nnc4n(CC(C)C)c(=O)c5ccccc5n34)CC2)c1C | inconclusive: -0.252% [signal inhibitor] | 
CCCn1c(NCc2cc(C)ccc2O)nc2ccccc21 | inconclusive: 4.01% [signal inhibitor] | 
O=C(Oc1ccc(N(Cc2cccs2)C2=NS(=O)(=O)c3ccccc32)cc1)c1ccco1 | inactive | 
CC(C)c1ccc(OCC(=O)NC(Cc2c[nH]c3ccccc23)C(=O)O)cc1 (centres undefined) | inconclusive: 4.73% [signal inhibitor] | 
CCc1ccccc1NC(=O)CN(Cc1ccccc1)S(=O)(=O)c1ccc(Br)cc1 | inconclusive: 6.7% [signal inhibitor] | 
COc1ccc(CCNC(=O)c2ccc3c(c2)N(Cc2c(F)cccc2Cl)C(=O)CS3)cc1OC | inconclusive: -1.08% [signal inhibitor] | 
